The record followed here is the supplement of paper PMC7826260.

This is one part of the list. Each Rep nickase domain was tested in vitro on the same pool of single strands for 1 h at 37 °C with 3 µM enzyme; only the middle of the 90-letter strands is printed. Uncut reads are compared with the no-enzyme pool on a log2 scale; strong cutting gives strongly negative numbers. There is no active / inactive call. The scaling is to total reads; where an enzyme cuts many sequences, the uncut ones exceed 0.

This experiment has as its system T1, Rep nickase domain of tomato golden mosaic virus.
T1 sequence (protein, residues 1-124, tag omitted): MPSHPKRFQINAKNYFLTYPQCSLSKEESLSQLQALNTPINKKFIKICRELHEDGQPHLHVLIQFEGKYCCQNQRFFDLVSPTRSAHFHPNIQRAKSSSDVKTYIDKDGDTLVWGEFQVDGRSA
Briefly: uncleaved DNA left, log2 of reads against the no-enzyme library (log2 ratio); higher = less cleavage (more negative = more Rep cleavage of the k-mer); sequences stand for … in CTCGTCCG…ACCGGAGA
The procedure: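 A pool of 90-nt single-stranded DNAs with seven random bases just before the constant AC of the nick site (name = the seven bases) was cut by 3 µM recombinant His6-SUMO-tagged Rep nickase domain (300 nM DNA, 50 mM HEPES pH 8.0, 50 mM NaCl, 1 mM MnCl2, 1 h, 37 °C, three replicates). Uncut DNA was amplified and sequenced.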
GTGCCGT: the “uncleaved DNA left (log2)” value is -0.185. In the case of CTATTCC it was -0.0359.

As for CATTACA, the “uncleaved DNA left (log2)” value is -0.0843. In the case of CGGCGGC it was 0.0519; in that of ACGGGTT, 0.0466; in that of CGCGACT, 0.0892.

In the case of GCCAGCT, the “uncleaved DNA left (log2)” value was -0.0467.

On to GCTTGTA, for which the “uncleaved DNA left (log2)” value was -0.00586. GTGTACC: the “uncleaved DNA left (log2)” value is -0.0259. As for GGTAGCC, the figure is 0.126; as for ACAGGTG, 0.0235; as for AAAATAC, -0.00753. In the case of AATCTTC it was -0.0564; in that of CCAATTT, -0.0626. Take GTGATCC: the “uncleaved DNA left (log2)” value came to 0.21. As for AGCCAGC, the figure is -0.0123. In the case of AGTTAGG it was 0.213; in that of GGATCAT, -0.159; in that of GGCGGCT, -0.00107. In the case of ACTAGCG, the “uncleaved DNA left (log2)” value is -0.042. With CCACGCC, the “uncleaved DNA left (log2)” value is -0.109. In the case of GGCCACC it was 0.0258. In the case of GTCTGAA, the “uncleaved DNA left (log2)” value is 0.117.

Regarding TGGCTAT, the “uncleaved DNA left (log2)” value was -0.154. Regarding CTCTCTC, the “uncleaved DNA left (log2)” value was -0.106. Consider GTGAAGG, for which the “uncleaved DNA left (log2)” value came to 0.0861. As for TTTTGAG, the figure is -0.115; as for GTGTATC, 0.0384.

With TCCGCTT, the “uncleaved DNA left (log2)” value is -0.0409. In the case of TGCCCAA it was -0.062; in that of AACTCTC, -0.146; in that of ATCCACA, 0.0753. In the case of GACGCTA it was -0.045; in that of AAAGAGT, 0.0558.

As for CGAATTT, the “uncleaved DNA left (log2)” value is -0.0833.

Turning to TAGCTTT, the “uncleaved DNA left (log2)” value is -0.267. As for CGAGGTA, the figure is 0.00619. In the case of GCGGACT it was -0.103; in that of GGCATCG, 0.0628. As for GGGCCGG, the figure is 0.155.
